Experimental data reported in PubChem BioAssay AID1240 (Sanford-Burnham Center for Chemical Genomics, 2008).
Several values for one entry are separate records, joined by “and”; a condition that tells them apart may be missing. Equal entries are not always repeated. The whole screen tested about 50,000 compounds, of which about 800 (1.6%) showed an effect of 50% or more. This is one part of the list.

The compounds below were run against Bcl-2-like protein 10 (Homo sapiens) (UniProt Q9HD36) (assay: TR3 peptide-Bcl-B binding displacers, biochemical primary FP assay, phenotype converters (AID 1240;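 further: 0% = Bcl-B with tracer peptide and DMSO and 100% = tracer peptide lacking Bcl-B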)). Settings: GST-Bcl-B / FITC-TR3 peptide fluorescence polarization; stronger effect = higher value; compound at 3.75 mg/L.
Chain of UniProt Q9HD36 (Q9HD36 whole entry, looked up): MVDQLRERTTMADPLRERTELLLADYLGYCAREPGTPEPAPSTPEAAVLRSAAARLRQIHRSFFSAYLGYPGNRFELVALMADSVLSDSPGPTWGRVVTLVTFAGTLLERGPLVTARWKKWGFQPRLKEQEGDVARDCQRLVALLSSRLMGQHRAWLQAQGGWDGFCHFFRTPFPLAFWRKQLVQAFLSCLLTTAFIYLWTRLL
Compound `COc1cccc(NC(=O)C2c3ccccc3Oc3ccccc32)c1` has a displacement of 5.8%.
`O=c1/c(=C/c2ccc(Cl)cc2)sc2nc3cc(Br)cnc3n12` was tested, and the displacement was -4.9%.
Work on `O=C(NC(=S)Nc1cc([N+](=O)[O-])ccc1Cl)c1ccc(Cl)cc1` yielded a displacement of 0.9%.
For `O=C(O)CCCC(=O)Nc1cccc(C(=O)O)c1`, the displacement was -9.8%.
`COc1cccc(N(CC(=O)Nc2ccc(C)cc2)S(=O)(=O)c2ccccc2)c1` was tested, and the displacement was 8.4%.
Compound `O=C(N/N=C\c1ccccc1Cl)c1cncc(Br)c1` has a displacement of 3.6%.
`Cc1cc2c(cc1C)CSC(c1cccc([N+](=O)[O-])c1)SC2` gave a displacement of 3.9%.
Compound `CCN1C(=O)/C(=C\c2ccc(Cl)c([N+](=O)[O-])c2)SC1=S` has a displacement of 12.3%.
In the case of `O=C(CN(c1cccc(Br)c1)S(=O)(=O)c1ccccc1)Nc1ccccc1`, the displacement is reported as 2%.
With `Cc1ccc(N2CC(C(=O)Nc3cccc(C)n3)CC2=O)cc1` (stereo unspecified) the displacement was -12.8%.
Compound `CC(C)CNC(=O)c1nn2c(c1Cl)NC(c1cccs1)CC2C(F)(F)F` (stereo unspecified) has a displacement of 1.6%.
In the case of `CCC(=O)Nc1ccc(NC(=O)c2cc(Cl)ccc2OC)cc1`, the displacement is reported as 4.5%.
In the case of `COc1ccc(/C=N\NC(=O)CNc2ccccc2C)cc1Cl`, the displacement is reported as 13.6%.
`COCCN1C(=O)/C(=C\c2ccc(-c3ccc(Br)cc3)o2)SC1=S` showed a displacement of 11.4%.
In the case of `CC1CN(c2ccc([N+](=O)[O-])cc2)CCN1S(=O)(=O)c1ccccc1` (stereo unspecified), the displacement is reported as 10.7%.
Work on `O=C(CSc1nc2ccccc2o1)OCC(=O)c1ccc(F)cc1` yielded a displacement of 16.9%.
`COC(=O)c1c(NC(=O)c2cnccn2)sc2c1CCCCCC2` showed a displacement of -0.1%.
`COc1ccc(N2C(=O)/C(=C/C3C(=O)N(c4ccccc4)N=C3C)C(=O)NC2=S)cc1` (stereo unspecified) gave a displacement of -0.4%.
`Cn1c(=O)c2[nH]c(N=Nc3c(O)[nH]c(=O)[nH]c3=O)nc2n(C)c1=O` gave a displacement of -36.6%.
`O=C1/C(=C\c2cccc([N+](=O)[O-])c2)SC(=S)N1c1ccccc1` was tested, and the displacement was 10.8%.
Work on `N#C/C(=C\Nc1ccc(Cl)cc1)C(N)=O` yielded a displacement of 9.5%.
For `CCN(CC)c1ccc(NC(=O)COc2ccc(OC)cc2)cc1`, the displacement was -5%.
In the case of `O=C1CC(c2ccccc2)CC(O)=C1C=NCc1ccc2c(c1)OCO2` (stereo unspecified), the displacement is reported as -2.5%.
`COc1ccc(NC(=O)/C=C/c2ccccc2)c(OC)c1` gave a displacement of -4%.
Compound `CN(C)c1cc(N/N=C/c2cccc(O)c2)nc(N(C)C)n1` has a displacement of 7.7%.
In the case of `COC(=O)c1ccc(CSc2nc3sc4c(c3c(=O)[nH]2)CCCC4)cc1`, the displacement is reported as -0.7%.
In the case of `Cc1cc(NC(=O)Nc2ccccc2)no1`, the displacement is reported as -7.7%.
`CCOC(=O)c1c[nH]c2c(Br)cccc2c1=O` gave a displacement of 1.8%.
In the case of `COC(=O)c1cccc(NC(=O)C2COc3ccccc3O2)c1` (stereo unspecified), the displacement is reported as -3.9%.
With `Cc1ccc(S(=O)(=O)Nc2ccc3ccccc3c2)cc1` the displacement was 17.9%.
Compound `C/C(C=NN1CCN(Cc2ccccc2)CC1)=C\c1ccccc1` has a displacement of 1.8%.
Work on `CCN(CC)S(=O)(=O)c1ccc2c(c1)OCCO2` yielded a displacement of 0.4%.
With `CCc1ccc(-c2nn(-c3cc(N4CCOCC4)ccc3[N+](=O)[O-])c(=O)c3ccccc23)cc1` the displacement was 9.4%.
`O=C1c2ccccc2-c2onc3ccc(Nc4cccc([N+](=O)[O-])c4)c1c23` was tested, and the displacement was 24.2%.
`CCOC(=O)c1c(NC(=O)COc2cc(Cl)ccc2Cl)sc(C(C)=O)c1C` showed a displacement of -8.8%.
`O=C(c1cccc(Cl)c1)N1CCN(Cc2ccncc2)CC1` was tested, and the displacement was -8%.
`O=C(Nc1nnc(-c2ccco2)s1)c1ccccc1I` was tested, and the displacement was -5.7%.
In the case of `O=C(CSC(=S)N1CCOCC1)c1ccc([N+](=O)[O-])cc1`, the displacement is reported as 38.4%.
`Cc1onc(-c2c(Cl)cccc2Cl)c1C(N)=O` gave a displacement of 11.9%.
For `CN1C(=O)C2(N=C(C(=O)O)c3ccccc3N2C)c2ccccc21` (stereo unspecified), the displacement was -3.5%.
In the case of `CCOc1ccc(NC(=O)C2=C(C)NC(=O)NC2c2cccc(Br)c2)cc1` (stereo unspecified), the displacement is reported as -7.7%.
Work on `CCOc1ccc(N(CC(=O)OC)S(=O)(=O)c2ccc(C)cc2)cc1` yielded a displacement of 10.3%.
`COc1ccc(/C(C)=N\NC(=O)COc2cccc(Cl)c2)cc1OC` showed a displacement of 6.5%.
Work on `Cc1n[nH]c(C)c1CCCCCOc1ccc(Cl)cc1` yielded a displacement of -1.3%.
With `COc1ccc(C(=O)N2CCN(Cc3cc(OC)c(O)c(OC)c3)CC2)cc1OC` the displacement was 8.6%.
Work on `CN(C)C=NC1=NN(c2ccccc2)CC1` yielded a displacement of 14%.
For `O=C(Nc1ccc(-c2ccc([N+](=O)[O-])cc2)cc1)c1ccccc1F`, the displacement was -11.7%.
In the case of `CN(c1ccc(C(=O)Nc2ccccc2Br)cc1)S(=O)(=O)c1ccccc1`, the displacement is reported as -8.9%.
`c1ccc(-c2noc(-c3ccc4ccccc4c3)n2)cc1` was tested, and the displacement was 25.5%.
`Cc1ccc(C(=O)ONC(=O)c2ccc(Cl)cc2)cc1[N+](=O)[O-]` showed a displacement of 3.4%.
`CCOc1ccc(N2C(=O)NC(=O)/C(=C/C=C/c3ccco3)C2=O)cc1` was tested, and the displacement was 36%.
Work on `O=[N+]([O-])c1ccccc1S(=O)(=O)NCCN1CCOCC1` yielded a displacement of -6.5%.
`CCN(CC)CCOc1ccc([N+](=O)[O-])cc1` gave a displacement of 5.3%.
Compound `CCOC(=O)c1c(NC(=O)c2ccc(Cl)c([N+](=O)[O-])c2)sc(C(=O)Nc2ccccc2OC)c1C` has a displacement of -14.3%.
Compound `Cc1cc(/C=N/NC(N)=O)c(C)n1-c1ccc(Cl)cc1` has a displacement of -13.9%.
Compound `N/C(Cc1ccc(Cl)cc1)=N\OC(=O)c1ccccc1Cl` has a displacement of 0.1%.
For `NS(=O)(=O)c1ccc(NC(=O)/C(=C\c2ccc([N+](=O)[O-])cc2)NC(=O)c2ccccc2)cc1`, the displacement was 3.1%.
Compound `CC(=O)Nc1ccc(S(=O)(=O)NC(=O)CC(C)C)cc1` has a displacement of 7.9%.
Compound `CSc1nc(NC(N)=O)c2c3c(sc2n1)CC(C(C)(C)C)CC3` (stereo unspecified) has a displacement of 0.7%.
`CC1=C(C(=O)Nc2ccccc2C)C(c2ccc(C)cc2)NC(=S)N1` (stereo unspecified) showed a displacement of -4.6%.
For `Cc1ccc(C(=O)Nc2ccccc2-c2ccccc2)cc1`, the displacement was -8.4%.
Work on `COc1cc(C=O)cc2c1OC1(C=C2)N(C)c2ccccc2C1(C)C` (stereo unspecified) yielded a displacement of 5.8%.
`CCOC(=O)c1ccc(N2C(=O)C3CC=C(C)CC3C2=O)cc1` (stereo unspecified) was tested, and the displacement was -7.5%.
In the case of `CC(C)(C)CC(C)(C)NC1=CC(=O)OC12CCCCC2`, the displacement is reported as 11.8%.
`CCOC(=O)C1=C(O)/C(=C/c2cccc(Br)c2)SC1=Nc1ccccc1` was tested, and the displacement was 14.8%.
For `CCOc1ccc(N/C=C(/C#N)c2nc(-c3ccc(F)cc3)cs2)cc1`, the displacement was -8.1%.
`CCc1ccc(-c2nc3cc(NC(=O)c4cccc(OC)c4)ccc3o2)cc1` was tested, and the displacement was 7.1%.
For `CCOC(=O)/C(=N/O)C1=NC2(CCCCC2)Cc2ccccc21`, the displacement was -1.8%.
Work on `O=C(CSCc1ccc(Cl)cc1Cl)Nc1ccc(O)cc1C(=O)O` yielded a displacement of 7.2%.
In the case of `CN(Cc1ccccc1)C(=O)CN(c1cccc([N+](=O)[O-])c1)S(=O)(=O)c1ccccc1`, the displacement is reported as -5%.
In the case of `O=C(CSCc1ccc(Cl)cc1)Nc1ccc(C(=O)Nc2nccs2)cc1`, the displacement is reported as 6.3%.
Compound `O=C(Cc1ccc(F)cc1)NCc1ccccc1` has a displacement of 10%.
`COc1ccccc1/C=C/C=N/NC(=O)CSc1nc2ccccc2n1C` showed a displacement of -7.4%.
In the case of `Cc1ccc(N(Cc2c(O)ccc3ccccc23)C(=O)c2ccco2)cc1`, the displacement is reported as -2.3%.
With `O=C(Nc1ccccc1C(=O)N1CCOCC1)c1cccnc1` the displacement was 8.2%.
With `COC(=O)C1=C(C)NC2=C(C(=O)c3ccccc32)C1c1ccc(-c2ccc(C(=O)O)cc2)o1` (stereo unspecified) the displacement was 10.2%.
With `CCOC(=O)COc1ccccc1/C=C1\C(=O)NC(=O)N(c2ccc(Br)c(C)c2)C1=O` the displacement was -8.3%.
For `COc1ccccc1Cc1noc(/C=C/c2ccccc2)n1`, the displacement was -1.2%.
With `COCCCNC(=O)/C=C/c1ccc(C)cc1` the displacement was -8%.
`Cc1ccc(N2NC(=O)/C(=C/c3ccc4c(c3)OCO4)C2=O)cc1C` was tested, and the displacement was 6.3%.
In the case of `Cc1cc(C)c2oc(-c3ccc(NC(=O)Cc4ccccc4)cc3O)nc2c1`, the displacement is reported as 42.8%.
Compound `COc1cc2nc(-c3cccc(C)c3)oc(=O)c2cc1OC` has a displacement of 8.8%.
For `N#Cc1cccc(NC(=O)CCC(=O)O)c1`, the displacement was -6.5%.
With `Cc1ccc(N2C(=O)c3ccc(C(=O)Nc4ccc(O)cc4)cc3C2=O)cc1C` the displacement was 17.7%.
With `CCN(CC)CC(=O)Nc1sc2c(c1C(N)=O)CCCC2` the displacement was -1.1%.
`Clc1ccc(OCCSc2ncnc3nc[nH]c23)cc1` gave a displacement of -7%.
`Clc1cccc(OCCCCN2CCOCC2)c1Cl` was tested, and the displacement was -0.6%.
`COc1cccc(-c2cc(C(=O)Nc3ccc(S(N)(=O)=O)cc3)c3ccccc3n2)c1` gave a displacement of -6.8%.
With `COc1ccc2c(c1OC)C(=O)OC2Nc1ccccc1Br` (stereo unspecified) the displacement was -5.8%.
`COc1ccc(CNCc2cccc3ccccc23)cc1OC` gave a displacement of 11.8%.
`Cc1ccc(C)c(C(C)(C)CC(=O)O)c1` was tested, and the displacement was 0%.
Compound `CCc1c(O)nc(SCC(=O)Nc2ccc(OC)cc2)[nH]c1=O` has a displacement of 3.9%.
`O=C1CC(N2CCC(Cc3ccccc3)CC2)C(=O)N1c1cccc(Cl)c1` (stereo unspecified) gave a displacement of -2.9%.
Compound `COC(=O)c1c(NC(=O)Nc2ccc(Cl)c(Cl)c2)sc2c1CCC2` has a displacement of 11.8%.
Compound `Cc1cc(Cl)ccc1OCC(N)=O` has a displacement of -0.8%.
In the case of `O=c1oc2ccccc2cc1-c1ccc([N+](=O)[O-])cc1`, the displacement is reported as -3.3%.
With `COC(=O)CN1C(=O)c2cccc3cccc(c23)C1=O` the displacement was 2.1%.
`CC1(C)C(C=C(Cl)Cl)C1C(=O)Nc1cccc(C(=O)O)c1` (stereo unspecified) gave a displacement of 10%.
Compound `CC1(O)c2ccccc2C(=O)N1Cc1ccccc1` (stereo unspecified) has a displacement of 12.6%.
With `O=C(CN(c1ccccc1)S(=O)(=O)c1ccccc1[N+](=O)[O-])Nc1ccccc1Cl` the displacement was 5.9%.
With `COc1ccc(NC(=O)/C(C#N)=C\c2cc(C)n(-c3ccc(Cl)c(Cl)c3)c2C)cc1` the displacement was -1.7%.
`COc1cc(/C=C2\SC(=S)N(CC(=O)O)C2=O)ccc1OC(=O)C12CC3CC(CC(C3)C1)C2` was tested, and the displacement was 5.6%.
For `NC(=O)c1cc(NC(=O)C(c2ccccc2)c2ccccc2)c(Cl)cc1Cl`, the displacement was -1.6%.
In the case of `CCCCOc1ccccc1NC(=O)c1ccc(C(C)(C)C)cc1`, the displacement is reported as -10.7%.
`COc1ccc(/C=C2\C(=O)N(c3ccc(C)c(Cl)c3)N=C2C)cc1[N+](=O)[O-]` showed a displacement of -3.3%.
For `COc1ccc(-n2c(=S)[nH]c3sc4c(c3c2=O)CC(C)(C)OC4)cc1`, the displacement was 6.9% and -4%.
`O=C(CC(c1ccccc1)c1ccccc1)NCC1OCCc2ccccc21` (stereo unspecified) showed a displacement of -5.8%.
`Cc1cc(=O)oc2cc(OCc3cccc(Cl)c3)c(Cl)cc12` was tested, and the displacement was -2.5%.
`COc1ccc(C[n+]2cccc(C(=O)Nc3c(C)cccc3C)c2)cc1OC` gave a displacement of 1.1%.
`COc1ccc(C2=CSC3=NCCN23)cc1F` was tested, and the displacement was 2.6%.
For `CS(=O)(=O)N(CC(=O)NCCSc1ccc(Cl)cc1)c1ccc(Cl)cc1`, the displacement was 12.9%.
